Out of some 48,000 compounds screened, about 120 (0.25%) were called active. Another 4% or so got no clear call; they are omitted. Calls follow the shape of the dose curve; as a rule, active = well fitted activation curve with a large enough effect; inconclusive = small, poorly fitted or top-dose-only effect, or another doubt; inactive = no such curve, though single readings can be large or run the other way. The list shows a part of the results.
assay: Primary qHTS for Identification of Small Molecule Activators of Huntingtin-Antisense Promoter Activity; settings: HEK293 HTT-AS promoter firefly luciferase reporter, 24 h; series mostly up to 57.5 µM; activity change, positive = activation: at the top concentration; also: nearly all actives have a fitted effect of over 55% in size
How it was run: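 Firefly luciferase signal from promoter-reporter HEK293 cells was scaled between vehicle (0%) and zero RLU (-100%). Compounds were tested at final concentrations of up to 57.5 uM over 24 h at 37 degrees C. PTC124 at 50 uM final served as control inhibitor.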

Row | Structure (SMILES) | activity change, positive = activation
1 | COc1ccc(C)c2sc(N(Cc3cccnc3)C(=O)C3CCCCC3)nc12 | inactive: -21.3%
2 | CCCCCOc1c(Cl)cc(C(=O)N(Cc2ccc(C)o2)C2CCS(=O)(=O)C2)cc1Cl (configuration not stated) | inactive: -27.2%
3 | CCOC(=O)c1ccc(N2C(=O)c3n[nH]c(-c4ccco4)c3C2c2ccc(O)cc2)cc1 (configuration not stated) | inactive: -37.8%
4 | CCCn1cc(S(=O)(=O)c2ccccc2)c(=O)c2cc(F)c(N3CCCC(C)C3)cc21 (configuration not stated) | inactive: -8.01%
5 | COc1ccc(C)cc1NC(=O)c1c(C)oc2ncn(CC(C)C)c(=O)c12 | inactive: -16.3%
6 | Cc1ccc(CSCC(=O)N2CCN(c3ccccc3F)CC2)cc1 | inactive: -13.4%
7 | Cc1ccc(S(=O)(=O)CC(=O)Nc2sc3c(c2C#N)CCCC3)cc1 | inactive: -16%
8 | CCn1cc(CCC(=O)NCc2ccccc2OC)c2ccccc21 | inactive: -5.99%
9 | CC1=C(C(=O)Nc2ccccc2)C(c2cccnc2)n2nc(SCc3ccccc3Cl)nc2N1 (configuration not stated) | inactive: -7.22%
10 | CC(C)c1c(C(=O)Nc2ccccc2)c(-c2ccccc2)c(-c2ccc(F)cc2)n1CC[C@H](O)C[C@@H](O)CC(=O)O | inactive: -12.9%
11 | Cc1cc(C2CCCCC2)n(O)c(=O)c1 | inactive
12 | CCOC(=O)Cn1c(=O)n(C2CCCCC2)c2nc(-c3cccc(F)c3)nc(C(N)=O)c21 | inactive: -14%
13 | CCN[C@@H]1C[C@H](N)[C@@H](OC2OC(CN)=CCC2N)[C@H](O)[C@H]1O[C@H]1OC[C@](C)(O)[C@H](NC)[C@H]1O (some centres not stated) | inactive: -3.54% [at 0.74 µM, percent change from vehicle, -100% = no light]
14 | Cc1ccc(S(=O)(=O)c2cc3cc(C(=O)O)ccc3oc2=O)cc1 | inactive: -27.6%
15 | COc1cccc(Cn2c(CNC(=O)Cc3cccc(C)c3)nc3cccnc32)c1 | inactive: -12.5%
16 | Cc1ccccc1NC(=O)Cn1c(=O)oc2cc(Br)ccc21 | inactive: -22.6%
17 | COc1ccc(N(CC(=O)Nc2cccc(Cl)c2C)S(=O)(=O)c2c(C)nn(C)c2C)cc1 | inactive: -24.1%
18 | COc1ccc(C2=C(C)C(=NCCCN3CCN(c4cc(C)ccc4C)CC3)NS2(=O)=O)cc1 | inactive: -35.6%
19 | Cc1ccc(NC(=O)c2cccc3c2C(=O)N(C2CCCCC2)C3)c(C)c1 | inactive: -4.38%

Row | Structure (SMILES) | activity change, positive = activation
20 | Cc1c(C)n(C)c2ccc(C(=O)NCCCN3CCCCC3C)cc12 (configuration not stated) | inactive: -10.1%
21 | O=C(c1cc2c(s1)-c1ccccc1OC2)N1CCN(c2ccccc2F)CC1 | inactive: -7.61%
22 | CCCCN(CC)CCCNC(=O)c1nn(C)c2c1CS(=O)(=O)c1ccccc1-2 | inactive: -1.12%
23 | Cc1ccc(C)c(NC(=O)Cn2cc(C(=O)c3ccco3)c3ccccc32)c1 | inactive: -26.6%
24 | CC1=C(C(=O)OC(C)C)C(c2cccc([N+](=O)[O-])c2)C(C(=O)OC2CN(C(c3ccccc3)c3ccccc3)C2)=C(N)N1 (configuration not stated) | inactive: -62.2%
25 | CCc1c(C)sc(NC(=O)c2cc(-c3cccc(Cl)c3)on2)c1C#N | inactive: -5.66%
26 | CCOC(=O)C1CCCN(c2cc(C)nc3c(-c4ccccc4OC)c(C)nn23)C1 (configuration not stated) | inactive: -30.5%
27 | O=C(Nc1cccc(OCc2cc(=O)n3c4c(sc3n2)CCCC4)c1)c1ccc(F)cc1 | inactive: 5.68%
28 | Cc1ccccc1-c1noc(CCC(=O)Nc2cccc(C)c2C)n1 | inactive: -5.06%
29 | Cc1ccc2nc(-c3cc(NC(=O)/C=C/c4ccccc4)ccc3Cl)oc2c1 | inactive: 3.89%
30 | O=C(c1cccc(Cl)c1)N1CCN(CCc2ccncc2)CC1 | inactive: -7.4%
31 | COc1cc(Cl)c(C)cc1NC(=O)c1cn(C2CCCC2)c(=O)c2c1c1ccccc1n2C | inactive: -8.19%
32 | COc1ccc(C(=O)Nc2ccc3nc(N4CCC(C)CC4)cc(C)c3c2)cc1 | inactive: -12.7%
33 | CCOc1ccc(-c2nnc(SCC(=O)NCCc3ccc(OC)c(OC)c3)nc2-c2ccc(OCC)cc2)cc1 | inactive: 3.28%
34 | CCOCCCNC(=O)C(Cc1ccccc1)NS(=O)(=O)c1ccc2c(c1)c(=O)n(C)c(=O)n2C (configuration not stated) | inactive: -14.7%
35 | COc1cc(C(=O)NS(=O)(=O)c2ccccc2C)ccc1Cc1cn(C)c2ccc(NC(=O)OC3CCCC3)cc12 | inactive: -30.6%
36 | COc1ccc(Cl)cc1-n1c(/C=C/c2cccc3ccccc23)nc2ccccc2c1=O | inactive: -16.8%
37 | COc1ccc(-c2nc(CSc3nncn4c3cc3occc34)c(C)o2)cc1 | inactive: -25.3%
38 | CCOC(=O)c1c(NC(=O)COc2cc(C)ccc2C(C)C)sc(C)c1C | inactive: -19.7%

Row | Structure (SMILES) | activity change, positive = activation
39 | CCOc1cccc(C(c2c(C)n(C)n(-c3ccccc3)c2=O)c2c(C)n(C)n(-c3ccccc3)c2=O)c1OC | inactive: 3.74%
40 | CCOc1ccc(NC(=O)c2nn(C)c3c2CS(=O)(=O)c2ccccc2-3)cc1 | inactive: -6.32%
41 | CCOc1ccccc1NC(=O)Cn1c(=O)n(-c2ccc(F)cc2)c(=O)c2sc3ccccc3c21 | inactive: -3.94%
42 | COc1ccc(CCNC(=O)CCCn2c(=O)c3ccccc3n(CC(=O)Nc3cc(Cl)ccc3C)c2=O)cc1OC | inactive: -46.1%
43 | Oc1c(C(c2ccc(Cl)cc2)N2CCC3(CC2)OCCO3)sc2nc(-c3ccco3)nn12 (configuration not stated) | inactive: 2.24%
44 | O=C(Cn1c(=O)oc2ccccc21)Nc1ccc(C(=O)O)cc1 | inactive: -6.92%
45 | COc1cc(NC(=O)c2cccc3c2C(=O)N(C2CCCCC2)C3)cc(OC)c1 | inactive: -1.31%
46 | CCOc1ccccc1NC(=O)CSc1nc2cc(OC)c(OC)cc2c2nc(-c3ccccc3)nn12 | inactive: 8.55%
47 | CCc1ccc(-c2[nH]c3c(c2-c2sc(C)c(C(=O)OC)c2O)c(=O)[nH]c(=O)n3C)cc1 | inactive: -22.6%
48 | Cc1nn(C(=O)c2ccc(Br)cc2)c(C)c1S(=O)(=O)N1CCOCC1 | inactive: 15.3%
49 | Cc1coc2c(C)c3oc(=O)c(CCC(=O)NCCc4ccccc4)c(C)c3cc12 | inactive: -6.79%
50 | Cn1c(NCCO)nc2c1c(=O)n(Cc1cccc(F)c1)c(=O)n2C | inactive: 0.762%
51 | COc1cccc(/C=C/c2nc(C#N)c(NCCc3ccc(OC)c(OC)c3)o2)c1 | inactive: -32.5%
52 | COC(=O)c1ccc2c(c1)N(Cc1ccc(F)cc1)C(=O)c1ccccc1S2 | inactive: -19.6%
53 | CCCCN(CCCC)S(=O)(=O)c1ccc2oc(C(=O)NCc3ccc(C)cc3)c(C)c2c1 | inactive: -11.9%
54 | CCCCN1C(=O)C(O)(c2c[nH]c3ccccc23)c2cc(Br)ccc21 (configuration not stated) | inactive: -25.1%
55 | Cc1ccc(NC(=O)Cn2c(=O)n(Cc3ccco3)c(=O)c3sc4ccccc4c32)cc1C | inactive: -9.23%
56 | O=C(CCCN1CCN(c2ccc(F)cc2)CC1)NC1c2ccccc2CSc2ccccc21 (configuration not stated) | inactive: -85.9%
57 | CCOc1ccc(CCNC(=O)c2cnc3c(-c4ccc(F)cc4)c(C)nn3c2C)cc1OCC | inactive: -6.34%

From PubChem BioAssay AID1508624 (National Center for Advancing Translational Sciences (NCATS), 2021)
